Measured values as given in the BET-seq Pho4 binding data (Le et al. 2018).
The list shows a part of the results. The energies were worked out here from pooled read counts, against the library average; single values are noisy.

Target: T1, Pho4 (S. cerevisiae) (UniProt P07270)
T1 sequence: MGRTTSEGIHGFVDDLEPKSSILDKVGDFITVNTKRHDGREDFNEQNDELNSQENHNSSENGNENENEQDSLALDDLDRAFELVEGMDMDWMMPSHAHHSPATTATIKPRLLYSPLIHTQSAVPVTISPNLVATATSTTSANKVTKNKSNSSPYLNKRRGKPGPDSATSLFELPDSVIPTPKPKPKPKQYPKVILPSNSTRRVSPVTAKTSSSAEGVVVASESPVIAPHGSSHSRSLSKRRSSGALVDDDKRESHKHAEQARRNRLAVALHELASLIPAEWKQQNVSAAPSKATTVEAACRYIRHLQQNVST
Assay: relative binding free energy (BET-seq); higher = weaker binding
Details: reference: library average

Row | Sequence | relative binding free energy [kcal/mol]
1 | TATCTCACGTGGGTGC | 0.18
2 | GATGTCACGTGAGGTT | 0.5
3 | TATGGCACGTGGGAGG | -0.18
4 | GTTGTCACGTGGTGAC | 0.09
5 | ATAGGCACGTGGCAGT | -0.33
6 | ACCTACACGTGGTGTG | 0.12
7 | TGTAGCACGTGGTAAT | -0.07
8 | AGTTACACGTGGAATT | 0.26
9 | TGTACCACGTGAGGTG | 0.09
10 | CAATACACGTGTGTGT | 0.09
11 | TTGCACACGTGGTGCG | -0.06
12 | CGGGACACGTGGGTGA | -0.14
13 | GGATACACGTGCGTTT | 0.08
14 | GTTTACACGTGAGTTG | 0.34
15 | AGACGCACGTGAGGGG | 0.1
16 | TAGCGCACGTGGGAAG | -0.17
17 | CGGCACACGTGGGTTG | -0.07
18 | CTGGTCACGTGGGAGT | -0.02
19 | TGTGGCACGTGATGTA | -0.05
20 | TCTTTCACGTGGGTTT | 0.22
21 | GAGTTCACGTGTGTGC | 0.31

Row | Sequence | relative binding free energy [kcal/mol]
22 | TGGGTCACGTGTCGTA | 0.13
23 | CGAAGCACGTGGGATT | -0.04
24 | AGAGACACGTGATTTT | 0.1
25 | TATCGCACGTGTAATG | -0.07
26 | GGGGCCACGTGTGTTT | -0.19
27 | ATGATCACGTGATTTG | 0.32
28 | AGATTCACGTGGTAGC | 0.28
29 | TTTGCCACGTGATTTG | 0.1
30 | GGGGTCACGTGAAAGT | 0.43
31 | AGGGCCACGTGTAAGT | 0.03
32 | AATTTCACGTGACGTT | 0.23
33 | TAGTTCACGTGATGAT | 0.33
34 | AGGGGCACGTGTAAGC | -0.01
35 | GAAAACACGTGGTGTG | -0.03
36 | AGTCGCACGTGTGTTG | 0.01
37 | AGATTCACGTGGGTTA | 0.16
38 | GTACGCACGTGCGGGT | 0.02
39 | TTTATCACGTGGCTAT | 0.12
40 | CGAGGCACGTGGATGA | 0
41 | GTAGACACGTGTGTGA | -0.06
42 | CAGTTCACGTGGTGGG | 0.23

Row | Sequence | relative binding free energy [kcal/mol]
43 | TTGTTCACGTGAGGCC | 0.44
44 | TTAGTCACGTGGCAGT | 0.04
45 | ATAAACACGTGCTGTT | -0.01
46 | GTGTACACGTGACGTT | 0.21
47 | TTTGACACGTGGGGGA | -0.12
48 | TAGATCACGTGAGAGT | 0.29
49 | ACGTGCACGTGGGTGC | -0.3
50 | GGTTGCACGTGTTTAC | 0.08
51 | AGTGCCACGTGTCGGT | -0.08
52 | GATTACACGTGTCGGT | 0.17
53 | ACGGACACGTGAGGGG | 0.19
54 | ACGTGCACGTGAGGCG | 0.2
55 | GTGTACACGTGTGTGT | 0.12
56 | GGTGACACGTGAGCAG | 0.18
57 | AAGCTCACGTGGGAGG | 0.09
58 | GTAGTCACGTGTGTGG | 0.24
59 | TATTGCACGTGAATGC | 0.14
60 | CGGAGCACGTGGCGTG | 0.02
61 | TTAGTCACGTGGTCCT | -0.04
62 | TGGTTCACGTGCATTA | 0.4
63 | TTACGCACGTGGGATG | -0.33
